# Test results as given in US9873709B2 (priority 2013, dated 2018).
# Molecular target: isolated recombinant JAK1 kinase domain (Homo sapiens (Human), UniProt P23458)
# Test: biochemical
row,Structure (SMILES),Ki
1,"O=C(CCC(F)(F)F)N1CC=C(c2cccn3nc(Nc4ccc(C(=O)N(Cc5ccccn5)C5CC5)cc4)nc23)CC1 [Example 2-272, N-cyclopropyl-N-(2-pyridylmethyl)-4-[[8-[1-(4,4,4-trifluorobutanoyl)-3,6-dihydro-2H-pyridin-4-yl]-[1,2,4]triazolo[1,5-a]pyridin-2-yl]amino]benzamide]",0.76 nM
2,"O=C(CCC(F)(F)F)N1CC=C(c2cccn3nc(Nc4ccc(C(=O)N5CCC6(CC5)CNCCO6)cc4)nc23)CC1 [Example 2-380, 4,4,4-trifluoro-1-[4-[2-[4-(1-oxa-4,9-diazaspiro[5.5]undecane-9-carbonyl)anilino]-[1,2,4]triazolo[1,5-a]pyridin-8-yl]-3,6-dihydro-2H-pyridin-1-yl]butan-1-one]",1.41 nM
3,"CN1C2COCC1CN(C(=O)c1ccc(Nc3nc4c(C5=CCN(C(=O)CCC(F)(F)F)CC5)cccn4n3)cc1)C2 [Example 2-458, 4,4,4-trifluoro-1-[4-[2-[4-(9-methyl-3-oxa-7,9-diazabicyclo[3.3.1]nonane-7-carbonyl)anilino]-[1,2,4]triazolo[1,5-a]pyridin-8-yl]-3,6-dihydro-2H-pyridin-1-yl]butan-1-one]",1.15 nM
4,"O=C(CCC(F)(F)F)N1CC=C(c2cccn3nc(Nc4ccc(C(=O)N5CCC(Cc6ccccn6)C5)cc4)nc23)CC1 (centres unmarked) [Example 2-471, 4,4,4-trifluoro-1-[4-[2-[4-[3-(2-pyridylmethyl)pyrrolidine-1-carbonyl]anilino]-[1,2,4]triazolo[1,5-a]pyridin-8-yl]-3,6-dihydro-2H-pyridin-1-yl]butan-1-one]",0.83 nM
5,"CN1CCC(N(C)C(=O)c2ccc(Nc3nc4c(C5=CCN(S(=O)(=O)N6CC(C)(C)C6)CC5)cccn4n3)cc2)CC1 [Example 2-479, 4-[[8-[1-(3,3-dimethylazetidin-1-yl)sulfonyl-3,6-dihydro-2H-pyridin-4-yl]-[1,2,4]triazolo[1,5-a]pyridin-2-yl]amino]-N-methyl-N-(1-methyl-4-piperidyl)benzamide]",18 nM

# Other lines, results leading:
row,Ki,Structure (SMILES)
1,1.44 nM,"CCOC(=O)N1CC=C(c2cccn3nc(Nc4ccc(C(=O)NCC5CC56CCNCC6)cc4)nc23)CC1 (centres unmarked) [Example 2-306, ethyl 4-[2-[4-(6-azaspiro[2.5]octan-2-ylmethylcarbamoyl)anilino]-[1,2,4]triazolo[1,5-a]pyridin-8-yl]-3,6-dihydro-2H-pyridine-1-carboxylate]"
2,4.93 nM,"CN1CCC(N(C)C(=O)c2ccc(Nc3nc4c(C5=CCN(C(=O)C6CCCCC6)CC5)cccn4n3)cc2)CC1 [Example 2-348, 4-[[8-[1-(cyclohexanecarbonyl)-3,6-dihydro-2H-pyridin-4-yl]-[1,2,4]triazolo[1,5-a]pyridin-2-yl]amino]-N-methyl-N-(1-methyl-4-piperidyl)benzamide]"
3,1.95 nM,"CN1CCC(N(C)C(=O)c2ccc(Nc3nc4c(C5=CCN(C(=O)OCc6ccccc6)CC5)cccn4n3)cc2)CC1 [Example 2-351, benzyl 4-[2-[4-[methyl-(1-methyl-4-piperidyl)carbamoyl]anilino]-[1,2,4]triazolo[1,5-a]pyridin-8-yl]-3,6-dihydro-2H-pyridine-1-carboxylate]"
4,3.18 nM,"CCOC(=O)N1CC=C(c2cccn3nc(Nc4ccc(C(=O)N5CCC6(CNC6)C5)cc4)nc23)CC1 [Example 2-375, ethyl 4-[2-[4-(2,6-diazaspiro[3.4]octane-6-carbonyl)anilino]-[1,2,4]triazolo[1,5-a]pyridin-8-yl]-3,6-dihydro-2H-pyridine-1-carboxylate]"
5,9.12 nM,"CC(C)C(=O)N1CC=C(c2cccn3nc(Nc4ccc(C(=O)N(C)C5CCN(C)CC5)cc4)nc23)CC1 [Example 2-410, N-methyl-N-(1-methyl-4-piperidyl)-4-[[8-[1-(2-methylpropanoyl)-3,6-dihydro-2H-pyridin-4-yl]-[1,2,4]triazolo[1,5-a]pyridin-2-yl]amino]benzamide]"
6,1.23 nM,"CCOC(=O)N1CC=C(c2cccn3nc(Nc4ccc(C(=O)N5CCN(CCC#N)CC5)cc4)nc23)CC1 [Example 2-417, ethyl 4-[2-[4-[4-(2-cyanoethyl)piperazine-1-carbonyl]anilino]-[1,2,4]triazolo[1,5-a]pyridin-8-yl]-3,6-dihydro-2H-pyridine-1-carboxylate]"
